Measurements: the supplement of paper PMC10126150
Values marked as one replicate rest on one cluster of the flow cell; about a third of the high ones do not repeat.

System: ATP
Test: switch fluorescence ratio, 500 uM ATP over buffer (Cy3 cluster intensity, sum of 5 cycles each) (fold (ratio)); higher = stronger signal-on switching upon ATP binding; sequences stand for … in TCGTCGGCAGCGTCAGATGTGTATAAGAGACAGTTTTTTTTTTTTTTTTTTTTTTTTT…TC
Details: aptamer strand: ATP DNA aptamer (quencher-CACCTGGGGGAGTATTGCGGAGGAAGG + anchor), 100 nM annealed; ATP concentration: 500 uM; one replicate
In short: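 For every switch-domain sequence, the fluorescence ratio is the mean of per-cluster values, each being summed target-cycle Cy3 intensity over summed buffer-cycle Cy3 intensity. Clusters outside 100-1000 RFU were excluded. On a modified Illumina MiSeq flow-cell, the Cy3-labelled switching-strand clusters were annealed to 100 nM quencher-labelled ATP aptamer, imaged in selection buffer and then after 15 min with 500 uM ATP at 22 °C. Five such cycles were run, with NaOH stripping and re-annealing between them.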
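Further: ATP exposure 15 min at 22 °C before imaging.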

| Sequence | switch fluorescence ratio |
| --- | --- |
| TAGGGCCTAC | 1.06 |
| GGGTCTTTAT | 0.975 |
| AGAGTACG | 0.978 |
| AGGCGAGACG | 1.06 |
| AATCCGACGT | 1.98 |
| CAGTGGGGA | 1.04 |
| GAGTGCGCAT | 0.991 |
| CGTAAGTGAG | 1.01 |
| ATTCGAGGGC | 1.02 |
| CTACATTCTA | 1 |
| GTCATATTT | 1.02 |
| GGCACCCGCA | 1.12 |
| CAATACGTCG | 1.11 |
| GTTTTATAAT | 1.01 |
| AAAAGGTATT | 0.99 |
| AATACCGCTA | 1.55 |
| CCCAGCCTCA | 1.04 |
| CGTGTCCACT | 1.01 |
| TCCCAGAAA | 1.03 |
| CTGTAGACAG | 1.03 |
| TTCATGGGAC | 0.995 |
| ATCATTATCC | 0.988 |
| TTGGGAATG | 1 |
| ACTGTGCCAG | 1.07 |
| AGTCTATTTA | 0.987 |
| GACGATGGGG | 1.03 |

| Sequence | switch fluorescence ratio |
| --- | --- |
| AATGTGCATC | 0.959 |
| GGGGAGGCGG | 1.01 |
| CCACATTAGG | 1.04 |
| TTACACGCTG | 0.989 |
| TTTGTAAAAC | 1.02 |
| GGACTGTAGG | 0.982 |
| ATCTTTCACC | 1.04 |
| TGCTGTACTT | 1.03 |
| GAAGGTCTGT | 1 |
| CGAAATATAG | 0.994 |
| TGGTACAAGT | 1.02 |
| CGTCCAGCTG | 1.03 |
| CGGCATAAAG | 1.02 |
| ATTTCATTAA | 0.997 |
| TGATCATTCC | 1.38 |
| GATTGCGGAA | 1.01 |
| GGGTAACTCG | 0.939 |
| CGGCCATGGA | 0.962 |
| ACTTACGGGT | 1.19 |
| ATGCACGGTC | 1.02 |
| AACGTCGGAC | 1.07 |
| TGGGCGTGTC | 0.982 |
| GTCACTGGTA | 0.998 |
| TCGTGCAATT | 1.72 |
| AGTTTGC | 0.973 |
| AACGGTCCAC | 1.2 |

| Sequence | switch fluorescence ratio |
| --- | --- |
| CGTTTATTCG | 0.987 |
| TGACCAGATG | 1.01 |
| AGGAGAGGA | 0.976 |
| AAAGTCGGCG | 0.988 |
| TTTTGCTGAT | 0.957 |
| GCTCGCGACT | 1.04 |
| TGGACACCG | 1.01 |
| GGCAGCGAAT | 1.02 |
| CCCCCCCCCT | 2 |
| GAATTAGTCA | 0.984 |
| AGTTTCG | 0.995 |
| TGGGGCCTCT | 1.02 |
| TCTAAGCGTG | 1.01 |
| ATTATGAGGC | 0.999 |
| GGATAAAAGA | 1.03 |
| AATCACGTCG | 0.991 |
| CTAGCATTGA | 1.01 |
| GATGGATGCT | 1.02 |
| GATGGCTTCT | 1.04 |
| TGTATAGGAG | 0.974 |
| GTTGCACATA | 1.03 |
| CTACATACAC | 1.29 |
| ATAGTGCC | 1.04 |
| TATTATTG | 0.974 |
| ATTTTTGTAT | 0.988 |
| CATGGGTTAG | 1.01 |

| Sequence | switch fluorescence ratio |
| --- | --- |
| ATCCACTTAA | 1.07 |
| CATACCAGTC | 1.06 |
| CGTCTCTCTA | 1.04 |
| GCCCTTCTGA | 0.95 |
| GTCGAAGAGA | 0.973 |
| CGAGGAGGCG | 0.932 |
| GAGCGTTATG | 1.03 |
| TTTTTGCACG | 1.04 |
| ATACGCTATT | 1.27 |
| CGATGGGGC | 0.997 |
| TGACGACCAT | 1.07 |
| ACGACTGTCA | 1.07 |
| ACCTGGGGGT | 1.97 |
| CATCCGGGCC | 1.06 |
| GCGGTGTGAC | 0.994 |
| CTGAGGAAAG | 1 |
| GCGATGCCGA | 0.967 |
| GCTCATCCG | 1.2 |
| ATGGTACTCC | 1.08 |
| GTCGTACTAT | 0.987 |
| AAAAGTGGTA | 1.05 |
| CTGACAGCAC | 4.13 |
| ACACCCTATG | 1.1 |
| TGTATTGATT | 0.938 |
| GAGGTTTCTG | 1.05 |
| GGCCGCCTG | 0.989 |

| Sequence | switch fluorescence ratio |
| --- | --- |
| TGTGTCGT | 0.974 |
| AATTAAATTG | 0.96 |
| TGGGAATAC | 2.67 |
| GAACCCCGAG | 1.13 |
| ACAAAGTGCG | 1.03 |
| ATAATGGGTG | 1.12 |
| CTGCTTAGAC | 1.42 |
| CGCGTTAATG | 1.02 |
| TGTATGATTC | 1.04 |
| ACCGTCCTGG | 0.981 |
| GCGTGGCGTC | 0.987 |
| AGGGTACGGC | 0.997 |
| CACAGTAGTG | 1.04 |
| CATAGCTTGG | 1 |
| GAATTATACT | 0.995 |
| CTTGATGTGA | 1.01 |
| GGTATTGAAT | 1.05 |
| TGTTGATGTG | 0.961 |
| TATAATGCAC | 1.09 |
| CAGGAGGCGA | 1.04 |
| AGGGTTTTGT | 0.965 |
| TCTGAGAAGA | 1.01 |
| AGAGAAGCTA | 1.03 |
| TTAGAGGTGG | 1.01 |
| GGCCCGCCTG | 1 |
| TCGCAAACCC | 1.03 |

| Sequence | switch fluorescence ratio |
| --- | --- |
| TTCCACACGT | 1.01 |
| GTTGTTTGAG | 0.954 |
| CTGGCATAGT | 1.04 |
| GGTCCAATCG | 1.02 |
| AAGTTCGACT | 1.01 |
| TGGTGCTTTC | 0.987 |
| GAGTGCTCT | 1.06 |
| TAGAGAAGGA | 1.04 |
| AGATTTCACG | 1.02 |
| GTACTTTGCA | 1.03 |
| TTGTCGTAC | 0.973 |
| GCCCCTTGAC | 1.03 |
| GAACTTGTGG | 0.987 |
| GGATACCTTG | 0.987 |
| CGCCTTCTGT | 0.978 |
| CATACGGAAA | 1.08 |
| GCACTCGAGT | 0.996 |
| CAACATATCA | 1.02 |
| CTGCAGGGTC | 1.21 |
| TTCTGTTTGT | 1.01 |
| AAAAAAGTCT | 0.972 |
| GAGGAGAGTT | 1.02 |
| TCTCTTGGAA | 1 |
| TATCTGGCGT | 0.939 |
| TCTCACAATC | 3.33 |
| TAGCCCACT | 1.03 |

| Sequence | switch fluorescence ratio |
| --- | --- |
| AAGCGATCCT | 1.04 |
| GCAGCGTATG | 0.994 |
| GCTATGAGCT | 1.02 |
| AAGTTTTCGA | 0.993 |
| CCGCAGATTT | 2.83 |
| ACATTCAGAA | 0.961 |
| GGTAAATCAG | 0.995 |
| ATAGCTCT | 0.98 |
| TGACTTCTGG | 0.995 |
| TGGCCGTGGG | 0.978 |
| ACTCTGGA | 1.04 |
| AGGTGCTCGA | 1.02 |
| AGGACGTTAT | 1.07 |
| TTTTCAAGG | 1.01 |
| TTTCTCTTTA | 0.975 |
| CTTTTAAGCA | 1.06 |
| TCAAAACATT | 1.04 |
| CAATACTGGT | 1.04 |
| ACTGGAACGC | 1.25 |
| CTTCGAAATT | 1.01 |
| GCAATGCCGG | 0.991 |
| TCGTGAAGCA | 1.12 |
| ATCATTTGG | 1.01 |
| TACCCCCCGA | 1.3 |
| AAGAACGAAG | 0.941 |
| GCACTGGGTA | 1.01 |

| Sequence | switch fluorescence ratio |
| --- | --- |
| AAATAAATAT | 1.04 |
| AATGCAATAG | 3.76 |
| GTCTCTGGTA | 0.999 |
| TTCGGTGCGG | 0.982 |
| ACAAGAAAAA | 1.2 |
| ATACTTGTGA | 0.943 |
| TCGAGCGTA | 1.01 |
| TCAGTCGTTT | 1.06 |
| GCTCATGC | 1.34 |
| GCAAGTTTCT | 1.02 |
| AACCGTGTAA | 1.01 |
| GTGTTAATCG | 1 |
| GCGTTGGCAT | 0.987 |
| CTTGTTCAAC | 1.02 |
| TCAGGAGGTA | 1 |
| ATCCACGAG | 1.04 |
| TAGTATAGAT | 0.968 |
| ACTAGAAAGC | 2.64 |
| AACGCTTCGT | 1.01 |
